Over roughly 33,000 sequences, “E-score (-0.5 to 0.5)” has its median near -0.035; the highest 2% begin near 0.35. Some of the results follow.
target: T1, Pdr3 (UniProt P33200); assay: PBM E-score (8-mer binding enrichment) (E-score (-0.5 to 0.5)); higher = stronger / more preferred TF binding; most listed sequences are background and not binding sites; settings: protein concentration: 200 nM; construct: GST-full length
T1 sequence: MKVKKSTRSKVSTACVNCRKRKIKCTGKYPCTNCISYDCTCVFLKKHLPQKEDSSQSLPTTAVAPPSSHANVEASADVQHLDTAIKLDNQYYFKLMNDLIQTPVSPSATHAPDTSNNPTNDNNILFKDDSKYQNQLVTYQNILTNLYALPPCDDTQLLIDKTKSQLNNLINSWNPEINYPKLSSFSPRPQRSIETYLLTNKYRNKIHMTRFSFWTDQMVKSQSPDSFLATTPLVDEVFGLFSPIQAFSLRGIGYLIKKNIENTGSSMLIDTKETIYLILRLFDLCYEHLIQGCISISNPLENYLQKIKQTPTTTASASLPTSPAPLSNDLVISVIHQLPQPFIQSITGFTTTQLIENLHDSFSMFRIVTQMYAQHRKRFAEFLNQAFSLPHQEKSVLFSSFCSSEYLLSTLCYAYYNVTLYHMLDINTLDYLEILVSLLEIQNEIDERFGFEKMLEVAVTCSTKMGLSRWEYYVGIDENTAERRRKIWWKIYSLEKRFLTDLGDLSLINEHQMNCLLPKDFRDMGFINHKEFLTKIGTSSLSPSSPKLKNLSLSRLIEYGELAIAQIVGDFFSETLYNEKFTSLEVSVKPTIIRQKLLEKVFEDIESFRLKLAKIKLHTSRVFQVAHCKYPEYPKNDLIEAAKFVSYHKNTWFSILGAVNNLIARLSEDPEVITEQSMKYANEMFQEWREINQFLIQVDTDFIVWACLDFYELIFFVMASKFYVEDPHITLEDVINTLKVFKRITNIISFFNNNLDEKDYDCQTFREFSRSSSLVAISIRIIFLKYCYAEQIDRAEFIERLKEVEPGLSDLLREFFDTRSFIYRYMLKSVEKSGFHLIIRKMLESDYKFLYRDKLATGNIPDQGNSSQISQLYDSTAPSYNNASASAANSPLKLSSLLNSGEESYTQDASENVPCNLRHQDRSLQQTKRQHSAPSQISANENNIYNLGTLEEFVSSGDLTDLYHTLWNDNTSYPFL
Outline: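 For each ungapped eight-base word taken together with its reverse complement, the Universal PBM Analysis Suite assigned an E-score. Binding data came from GST-tagged yeast transcription factors, applied at about 100-200 nM, on universal all-10-mer Agilent arrays made double-stranded by primer extension. Fluorescent anti-GST marked bound protein, and scans were normalised with masliner.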

| Sequence | PBM E-score |
| --- | --- |
| GTTTCAAA | -0.138 |
| CAACGCGC | 0.159 |
| AGCAACAA | -0.0779 |
| ACGGTGAT | -0.0595 |
| ATATTGCG | 0.143 |
| ACTCATTA | -0.0261 |
| ACAGAGCA | -0.00989 |
| GTCCTCGA | -0.0431 |
| AATATCTC | 0.0689 |
| CCACTAAA | -0.056 |
| ACAACGCA | -0.0503 |
| AGTTGGAG | 0.00815 |
| CTGGTCTC | -0.267 |
| GAACTGAC | 0.117 |
| GCAACCAC | 0.145 |
| ACCCATTG | 0.0537 |
| ACGTTGCC | -0.0541 |
| ATCCGTCG | 0.313 |
| TAATCCCA | -0.218 |
| GATTGGAC | -0.0483 |
| CGCCTCAG | 0.0503 |
| ATTTGATC | 0.106 |
| AATACCCC | 0.188 |
| CCTAGAAC | -0.0606 |
| CCTATCTA | -0.226 |

| Sequence | PBM E-score |
| --- | --- |
| ATGGAATA | 0.205 |
| AAAACCAG | -0.0562 |
| TACCTAAA | -0.145 |
| GGGCGGAC | 0.373 |
| CTGTGCGC | 0.2 |
| GTTGAAAC | 0.0372 |
| TGGCACAA | -0.108 |
| ATAACTGA | 0.00191 |
| CTTCACAC | -0.201 |
| AGGTTCAA | -0.0082 |
| ATAGTAGG | -0.0379 |
| TCGTGGAA | 0.175 |
| AAGAAGCC | 0.226 |
| CGAGATTA | 0.157 |
| GAGTAATA | 0.157 |
| ACATTACT | -0.135 |
| AGACTCTC | -0.201 |
| CCATTAAC | 0.0654 |
| AGATGCGA | 0.0515 |
| CTCCGGGA | 0.399 |
| CCAAGAGA | -0.18 |
| AGTTGAAA | -0.0974 |
| CGTTTTGA | -0.058 |
| CCGACAAG | 0.184 |
| CCCTCTCC | -0.208 |

| Sequence | PBM E-score |
| --- | --- |
| ATATGTGA | -0.153 |
| CCAGTGGA | -0.00745 |
| CATCTGCG | -0.0174 |
| CAAATGAC | -0.232 |
| AATAGCAC | -0.095 |
| GCGTAGTA | -0.095 |
| AACTCAAC | 0.0661 |
| GCCAGGCC | 0.0597 |
| GTCATCAA | -0.0443 |
| ATGGGATG | -0.0223 |
| ACCTAAGG | -0.205 |
| ATTTTCGC | 0.0337 |
| CTGGCACA | -0.324 |
| CACGTTGA | -0.125 |
| GGTTCGGA | 0.34 |
| AGCAAACG | -0.0291 |
| ATGAGCGA | 0.0929 |
| ATTTAACC | -0.00537 |
| GTTTAGCA | -0.0375 |
| TCTACAGA | -0.149 |
| AAGCGAGA | -0.133 |
| ACCTCGGA | 0.357 |
| GCGGCACA | 0.168 |
| GACCCGGC | 0.294 |
| AGCATCAA | 0.0103 |

| Sequence | PBM E-score |
| --- | --- |
| ACGTCCGG | 0.227 |
| AGTTAGGC | -0.279 |
| AACGTCAT | -0.115 |
| GTCCAACA | -0.0539 |
| CTTATGGC | -0.136 |
| AAGACCGT | -0.0797 |
| TAACTCCA | -0.178 |
| GCGCCTCC | 0.0241 |
| CTAGCCGA | 0.152 |
| AGTCCCGA | 0.147 |
| CTCGCTGC | 0.00281 |
| GGGCTTTA | -0.219 |
| CACTTGTC | 0.0711 |
| ACGCTGAA | -0.0254 |
| CGAACCCC | 0.0316 |
| ATGTTGTC | 0.0575 |
| AGGTGCGC | -0.179 |
| CACGACAC | 0.0814 |
| CCACAAGA | -0.053 |
| CCGGCGGC | 0.325 |
| ATAGCATG | -0.189 |
| GGATAAAA | 0.132 |
| AGACACAC | -0.112 |
| TAGACCGA | -0.0359 |
| CCTCATTC | 0.00413 |

| Sequence | PBM E-score |
| --- | --- |
| GCCTAATA | -0.107 |
| ATGCGTCA | -0.119 |
| ATCGTATG | -0.171 |
| CTATAAAA | -0.111 |
| CCAACGAA | -0.00854 |
| CTGAACCC | 0.0316 |
| GCGACAAC | 0.043 |
| AAGTAACC | -0.115 |
| GTACTCCA | -0.0975 |
| GAATTCTA | 0.0439 |
| GAAGTTCC | 0.195 |
| CGAGGAGC | 0.026 |
| GCAACTAC | -0.0493 |
| CACGGGCC | 0.196 |
| CACGACTA | -0.231 |
| GCTAGCCA | -0.164 |
| GTTACCGA | 0.106 |
| CTCTATGC | -0.0609 |
| TAGAACAA | -0.223 |
| AACAACTA | 0.0903 |
| TCCAGCGA | -0.0535 |
| AGTGGACA | 0.00824 |
| CGGGATAA | 0.408 |
| AGTTCAGG | -0.23 |
| CACTAGAA | -0.117 |

| Sequence | PBM E-score |
| --- | --- |
| CGAATTTC | 0.105 |
| CACCTCCG | 0.278 |
| ATCTAGCG | -0.0513 |
| CCTTTGGC | -0.196 |
| CGCGTATA | -0.0408 |
| CGGATTAA | 0.242 |
| GTCCGAAC | 0.264 |
| AGGGGCAC | -0.293 |
| CACAAACG | 0.18 |
| CCGTGGAC | 0.274 |
| CTACTCTC | -0.0411 |
| CCATCGCA | -0.136 |
| GGCCTATA | -0.119 |
| AATTTTAG | -0.194 |
| AGTGCGGC | 0.131 |
| ATACGCTC | 0.0154 |
| ACGAGCAC | -0.0466 |
| ACCTTCAA | -0.254 |
| CCATCTCA | -0.0788 |
| CAAGTCGC | -0.139 |
| AGAAATTG | 0.0295 |
| CACCGTAG | -0.14 |
| ACTCCTAT | -0.186 |
| CGCCCGCG | 0.314 |
| CGGGTACA | 0.113 |

| Sequence | PBM E-score |
| --- | --- |
| CGTTGGTC | -0.0933 |
| CCTTTCGC | -0.0377 |
| CTAATACA | -0.107 |
| AAATAACA | 0.0634 |
| GCACACGC | -0.133 |
| CCAGAAGC | -0.0512 |
| TAATCTAA | -0.121 |
| GATACGGC | 0.014 |
| AGTGGGAT | 0.0527 |
| CCTTCCCA | -0.0891 |
| AAGACCCA | 0.0318 |
| GTATCATA | 0.135 |
| ACGTCAGA | -0.245 |
| CGGTGAAG | -0.194 |
| AAGCCTTC | -0.113 |
| CTGGACTC | -0.177 |
| GCCAAGCA | -0.259 |
| ATAGCCCC | -0.0994 |
| CCATCAAA | -0.138 |
| CAGATCAA | -0.117 |
| ATTCCCTC | 0.0857 |
| AAGCGGGT | 0.0837 |
